Laboratory results published in PubChem BioAssay AID485344 (National Center for Advancing Translational Sciences (NCATS), 2010).
Screen size: about 340,000 compounds; about 6,900 (2%) were called active. No stated cut-off is given here; in the data, active means inhibition above about 30%; inactive means below that, where a call was filed. The list shows a part of the results, in another mix than the full data. Entries without a call were filed so in the source.
Further: 0% is about no effect.

What follows are molecules tested against D(2) dopamine receptor (Homo sapiens) (UniProt P14416) (assay: HTS Assay for Allosteric Antagonists of the Human D2 Dopamine Receptor: Primary Screen for Antagonists). Details: HEK293 TREx D2 cells, calcium flux, dopamine EC80; at 10 µM; stronger effect = higher value.
Sequence of UniProt P14416 (P14416 whole entry, looked up): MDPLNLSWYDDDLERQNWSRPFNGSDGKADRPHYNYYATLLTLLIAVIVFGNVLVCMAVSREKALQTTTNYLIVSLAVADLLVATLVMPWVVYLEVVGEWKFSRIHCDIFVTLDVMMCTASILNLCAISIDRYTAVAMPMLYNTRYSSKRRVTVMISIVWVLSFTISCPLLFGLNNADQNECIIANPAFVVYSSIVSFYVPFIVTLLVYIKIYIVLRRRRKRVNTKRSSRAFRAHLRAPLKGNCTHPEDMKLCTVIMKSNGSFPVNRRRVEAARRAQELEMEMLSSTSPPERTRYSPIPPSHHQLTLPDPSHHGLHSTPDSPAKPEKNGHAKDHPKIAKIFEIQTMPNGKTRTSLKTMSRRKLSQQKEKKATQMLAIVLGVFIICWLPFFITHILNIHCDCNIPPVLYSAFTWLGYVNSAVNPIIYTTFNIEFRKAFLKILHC
In short: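 Compounds are added to dye-loaded, induced HEK293 T-REx cells coupled to calcium release via D2; after a 3 min kinetic read an EC80 dopamine stimulus is given and fluorescence is recorded for 3 more min.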
COc1ccc(OC)c(NC2=C(c3ccccc3)C(=O)c3ccccc32)c1 gave an inhibition of -4.18%.
COc1ccc(-c2nn(CC(=O)NC3CCCC3)c3c2cnc2ccc(F)cc23)cc1 gave an inhibition of 17%.
With O=C(CCC(=O)N1Cc2ccccc2Oc2ncccc21)Nc1ccc(Cl)cc1 the inhibition was -1.22%.
In the case of COc1ccc(/C=N/Nc2nnc(-c3ncc[nH]3)c3ccccc23)cc1, the inhibition is reported as active: 47.4%.
In the case of CCOc1ccccc1-n1ccnc(NCc2ccc(F)cc2)c1=O, the inhibition is reported as 4.46%.
Work on Cc1cccc(NC(=O)Nc2nnc(N(C)C3CCCCC3)s2)c1C yielded an inhibition of 10.2%.
Molecule Cc1nn(CC(=O)NCc2ccco2)c(=O)c2cc3ccccc3n12 has an inhibition of 6.45%.
In the case of C=CCn1c(Oc2cc(C)ccc2C)nc2c1c(=O)n(C)c(=O)n2C, the inhibition is reported as active: 30%.
With CCc1ccccc1N(C)C(=O)c1cn(CC(C)C)c(=O)c2cc(OC)c(OC)cc12 the inhibition was -19.7%.
Molecule Cc1ccccc1CNC(=O)c1ccc(NC(=O)c2nsc3ccccc23)cc1 has an inhibition of -19.6%.
Work on O=C(Cn1c(=O)oc2cc(S(=O)(=O)N3CCCCCC3)ccc21)Nc1cccc(C(F)(F)F)c1 yielded an inhibition of -7.68%.
O=C1Cc2cc(S(=O)(=O)N3CCN(c4ccccc4)CC3)ccc2N1 was tested, and the inhibition was 7.72%.
Cc1ccc(-c2nc(C(=O)NCc3ccc(Cl)cc3)c3n2CCCCC3)cc1 was tested, and the inhibition was 13.7%.
For Cc1ccc(N2CC3=C(C2=O)C(c2ccc(Br)cc2)NC(=O)N3C)cc1 (stereo not drawn), the inhibition was -11.8%.
With Cc1cc[n+](CC(=O)N2CCCc3ccccc32)cc1 the inhibition was active: 38.8%.
In the case of O=C1c2ccccc2C(=O)N1CCc1nc2ccccc2c(=O)n1Cc1ccco1, the inhibition is reported as active: 40.4%.
With Cc1ccc(CNC(=O)CC2Oc3ccccc3NC2=O)cc1 (stereo not drawn) the inhibition was 15.1%.
Work on CCN(C(=O)CSc1nc2ccccc2n1CC(=O)Nc1cccc(C#N)c1)c1ccccc1 yielded an inhibition of 17.3%.
Cc1cc(NC(=O)CN2C(=O)C(C)(C)c3ccccc32)ccc1Br showed an inhibition of -27.2%.
With COc1ccc(C(CC(=O)Nc2ccc(F)c(Cl)c2)N2Cc3ccccc3C2=O)cc1OC (stereo not drawn) the inhibition was 19.6%.
CCOC(=O)C1CCCN(C(=O)Cn2ncc3c([nH]c4ccccc43)c2=O)C1 (stereo not drawn) showed an inhibition of 2.56%.
Work on CCC(=O)N1CCc2cc(Br)cc(S(=O)(=O)NCCc3ccc(OC)c(OC)c3)c21 yielded an inhibition of -18%.
With O=C(NCCCc1nc2ccccc2n1Cc1ccccc1Cl)C1CCCCC1 the inhibition was 6.83%.
With CC(=O)C1=C(OC(=O)C(C)C)c2ccccc2S(=O)(=O)N1Cc1ccccc1 the inhibition was -4.74%.
CCn1c(SCc2ccccc2)nnc1-c1nonc1NC(C)=O was tested, and the inhibition was -17%.
With Cc1[nH]n2c(=O)cc(-c3ccccc3Cl)nc2c1-c1ccccc1 the inhibition was -16.5%.
With CCOc1ccccc1OCCNC1CCCC1 the inhibition was active: 61.8%.
Molecule COc1cc(NC(=O)c2nnn(Cc3ccc(F)cc3)c2N)cc(OC)c1 has an inhibition of -17.2%.
In the case of Cc1ccccc1C(=O)N1CCC(c2nc3ccccc3s2)CC1, the inhibition is reported as -13%.
CCOc1ccc(CCNC(=O)c2ccc3c(c2)c(C)c(C)n3C)cc1 was tested, and the inhibition was -2.69%.
COc1cc(C(=O)N(Cc2ccc(C(C)C)cc2)C2CCS(=O)(=O)C2)cc(OC)c1OC (stereo not drawn) showed an inhibition of -9.84%.
With Cc1nn(C)c(C)c1/C=N/NC(=O)CCn1cc([N+](=O)[O-])cn1 the inhibition was active: 32%.
Molecule CSc1nc2sc3c(c2c(=O)n1-c1ccc(C)c(Cl)c1)CCN(C(C)=O)C3 has an inhibition of -4.35%.
CCCn1c(SCC(=O)NNC(=O)c2ccccc2)nnc1-c1cccnc1 was tested, and the inhibition was active: 31.5%.
COc1ccc(NC(=O)c2cc(-c3ccccc3OC)on2)cc1 was tested, and the inhibition was active: 32.5%.
CCOC(=O)c1cnn(-c2ccc(OC)cc2)c1C1CCN(C(=O)OC(C)(C)C)CC1 gave an inhibition of 11.4%.
With Cn1nc(C(=O)Nc2cc(F)ccc2F)c2c1-c1ccccc1SC2 the inhibition was 10.1%.
CC1CCCCN1c1csc2ccc(F)cc2c1=O (stereo not drawn) gave an inhibition of -14.3%.
With Cc1c(/C=N\NC(=O)C2COc3ccc(C(C)(C)C)cc3O2)c2ccccc2n1C (stereo not drawn) the inhibition was active: 58%.
COc1ccccc1N1CCN(C(=O)CCc2c(C)nn(-c3ccc(N4CCCC4)nn3)c2C)CC1 showed an inhibition of -8.06%.
With Cc1cc(C)c2oc(-c3ccc(NC(=O)c4cc(Br)ccc4Cl)cc3)nc2c1 the inhibition was 8.13%.
With Cc1ccc([N+](=O)[O-])cc1NC(=O)Nc1onc(C)c1C the inhibition was active: 46.6%.
For Cc1ccc(NC(=O)CCc2nc3cccnc3n2-c2ccccc2)cc1, the inhibition was -7.26%.
Cc1coc2cc3oc(=O)c(CC(=O)NCCc4ccccc4F)c(C)c3cc12 showed an inhibition of -5.79%.
O=C(Cn1c(=O)n(Cc2ccc(C(=O)NCc3ccccc3Cl)cc2)c(=O)c2ccccc21)Nc1ccc(F)cc1 showed an inhibition of 3.48%.
Molecule Cc1c(-c2ccccc2)n(-c2ccc(Cl)cc2)c2nc3c(c(=O)n(C)c(=O)n3C)n12 has an inhibition of 7.57%.
In the case of COc1ccc(NC(=O)CSc2nc3c(c(=O)n2-c2ccc(F)cc2)SCC3)c(OC)c1, the inhibition is reported as active: 37.7%.
COc1ccccc1Cc1nc2ccccc2nc1SCC(=O)NCc1ccc(F)cc1 gave an inhibition of 16.3%.
Molecule O=C(CC(c1cccs1)N1Cc2ccccc2C1=O)Nc1ccc(Cl)cc1 (stereo not drawn) has an inhibition of 1.67%.
COc1ccccc1Nc1nc2c(S(=O)(=O)c3ccc(C(C)C)cc3)nnn2c2ccsc12 showed an inhibition of -4.13%.
Molecule CCOc1ccc2nc(Cl)c(C3CC(c4ccc(C)cc4)=NN3C(=O)CCCC(=O)O)cc2c1 (stereo not drawn) has an inhibition of 14.2%.
With Cc1cccc(N2CCN(c3ncnc4onc(-c5ccc(F)cc5)c34)CC2C)c1 (stereo not drawn) the inhibition was -5.52%.
Molecule Cc1ccc2c(=O)cc(C(=O)Nc3ccc(S(=O)(=O)N4CCCCC4)cc3)oc2c1C has an inhibition of -0.187%.
Work on CCOC(=O)c1[nH]c2ccccc2c1NC(=O)c1ccc(OC)c(OC)c1 yielded an inhibition of -2.36%.
With COc1cc(NC(=O)Cn2c(C)cc(C)c(C#N)c2=O)cc(OC)c1 the inhibition was -1.85%.
With CCn1cc(C(=O)NCCc2ccc(Cl)cc2)c(=O)c2cc(S(=O)(=O)N3CCOCC3)ccc21 the inhibition was 2.06%.
Oc1cccc(-c2nc3ncccn3c2Nc2cccc(C(F)(F)F)c2)c1 showed an inhibition of 15.6%.
Work on CCN(CC)S(=O)(=O)c1ccc2c(c1)N(CC(=O)Nc1ccc(F)cc1F)C(=O)C1CCCN21 (stereo not drawn) yielded an inhibition of 1.2%.
Cc1ccc(CNc2ccc(-c3nc(-c4cccnc4)no3)cc2[N+](=O)[O-])cc1 was tested, and the inhibition was -5.31%.
For CCOC(=O)c1[nH]c2ccccc2c1NC(=O)c1cc(Cl)ccc1Cl, the inhibition was 3.42%.
With COc1ccc(CNC(=O)CCCCCn2c(=O)[nH]c3ccccc3c2=O)cc1 the inhibition was 16%.
With CCOP(=O)(c1ccccc1)c1nc(-c2ccc(F)cc2)oc1N1CCCCC1 (stereo not drawn) the inhibition was active: 31.7%.
O=C(Cn1ncc2c3ccccc3n(Cc3ccccc3)c2c1=O)N1CCCCCC1 showed an inhibition of 3.02%.
In the case of NC(=O)NC(CC(=O)NNC(=O)c1ccccn1)c1ccc(Cl)cc1 (stereo not drawn), the inhibition is reported as active: 35.3%.
COc1ccc(-c2noc(-c3ccccc3OCC(=O)Nc3ccc(C(C)=O)cc3)n2)cc1 gave an inhibition of 1.53%.
CCc1cccc(NC(=O)Cn2c(C(=O)OC)cc3occc32)c1 was tested, and the inhibition was 0.425%.
For COc1ccccc1NC(=O)Cn1c(=O)n(-c2ccccc2Cl)c(=O)c2sc3ccccc3c21, the inhibition was 5.82%.
COCCCn1c(SCc2ccccc2F)nc2c(sc3ccccc32)c1=O was tested, and the inhibition was 7.06%.
Cc1cc(OCC(=O)O/N=C(\N)Cc2cccs2)ccc1Br was tested, and the inhibition was active: 48.7%.
Molecule COc1ccccc1CNC(=O)c1cc2sccc2n1Cc1ccc(F)cc1 has an inhibition of 12.8%.
Work on COc1ccc(Br)cc1CNC(=O)CCCn1c(=O)c2cccn2c2cccnc21 yielded an inhibition of 2.65%.
Work on COc1ccc(C2C=C(c3ccc(C)cc3)Nc3c(C(=O)Nc4ccccc4)cnn32)cc1 (stereo not drawn) yielded an inhibition of -27.9%.
Molecule CCCS(=O)(=O)c1c(S(=O)(=O)CCC)c2cc(C(C)(C)C)ccn2c1C(=O)c1ccc(OC)c(OC)c1 has an inhibition of 5.74%.
In the case of O=C(Nc1ccc(F)c(Cl)c1)C1CCCN(c2ncnc3onc(-c4ccc(F)cc4)c23)C1 (stereo not drawn), the inhibition is reported as -0.55%.
COC(=O)c1cc2sccc2n1Cc1ccc(F)cc1 showed an inhibition of 13.6%.
For CCCCC(=O)Nc1nnc(S(=O)(=O)N2CCCCCC2)s1, the inhibition was 20.4%.
In the case of CN1CCN(c2nc(-c3cccs3)nc3ccccc23)CC1, the inhibition is reported as active: 32.3%.
CCN(c1cccc(C)c1)C(CNS(=O)(=O)c1ccccc1)c1ccccc1 (stereo not drawn) was tested, and the inhibition was -1.63%.
For O=C(NC1CCN(Cc2ccc(Cl)cc2)CC1)c1cn(-c2ccccc2)nc1-c1cccnc1, the inhibition was active: 74%.
For CCOc1ccc(NC(=O)c2cccc(N3CCCS3(=O)=O)c2)cc1, the inhibition was 6.69%.
For Cc1ccc(C)c(N2CCN(C(=O)CN3C(=O)COc4ccc(S(=O)(=O)N5CCOCC5)cc43)CC2)c1, the inhibition was 12.6%.
In the case of Cc1ccc(C)c(CNC(=O)C2CCCCN2S(=O)(=O)c2ccc(F)cc2)c1 (stereo not drawn), the inhibition is reported as 5.29%.
Cc1cccc(-c2cc(NC(=O)c3ccccc3C)n(-c3ccccc3)n2)c1 gave an inhibition of -22.8%.
For Nc1c2c(nc3c1CCC3)CCCC2, the inhibition was active: 30.7%.
COc1ccc(C(=O)Oc2c(Sc3ccc(C)cc3)c(C)nn2C(C)(C)C)c(OC)c1 was tested, and the inhibition was -13.9%.
For Cc1ccc2cc(CCNC(=O)c3c(-c4ccccc4Cl)noc3C)c(=O)[nH]c2c1, the inhibition was active: 34%.
For C=Cc1ccc(Cn2c(C(=O)O)c(CNCc3cc(OC)ccc3OC)c3ccc(C)cc32)cc1, the inhibition was 4.15%.
COCCNC(=O)C(=O)Nc1ccc2nc3n(c(=O)c2c1)CCCCC3 showed an inhibition of -0.467%.
CCC12CN3CC(C)(CN(C1)C3c1c(C)[nH]c3ccccc13)C2=O (stereo not drawn) showed an inhibition of 1.38%.
CCOc1ccc(C2C(C(=O)Nc3ccc(C)cc3C)=C(C)Nc3c(C(=O)Nc4ccc(C)cc4)cnn32)cc1OC (stereo not drawn) was tested, and the inhibition was -0.045%.
COc1ccc(CCNC(=O)C(C)n2nc(C)c3sc4ccccc4c3c2=O)cc1OC (stereo not drawn) was tested, and the inhibition was -23.8%.
Molecule COc1ccc(C2NC(=O)N(C)C3=C2C(=O)N(c2ccccc2)C3)cc1 (stereo not drawn) has an inhibition of -7.65%.
COc1ccc(-c2nc3c(C#N)c[nH]n3c2NC2CCCCC2)cc1 was tested, and the inhibition was -0.285%.
With COc1ccc(CN2CCN(C(=O)c3ccco3)CC2)cc1OC the inhibition was active: 59.8%.
With CCOCCCn1c(=N)c(S(=O)(=O)c2ccccc2)cc2c(=O)n3cc(C)ccc3nc21 the inhibition was -17.8%.
Work on CC(=O)c1cccc(NC(=O)c2ccc3c(c2)CCN3S(=O)(=O)c2ccccc2)c1 yielded an inhibition of -8.24%.
With Cc1ccc(-n2nc(C)c3c(C)c(CCC(=O)NCc4cccc(Cl)c4)c(C)nc32)cc1C the inhibition was 4.53%.
For Cc1cccc(C(=O)Nc2cc3c(cc2N2CCCCC2)n(C)c(=O)n3C)c1, the inhibition was 20.7%.
